Publication PMC5571287 (Antimicrobial Agents and Chemotherapy, 2017)
Where two headings read alike, the source gives them in different places.

Tests used:
[1] = tested on: low-passage RSV B clinical isolates (x5 B); experiment: microbe, parasite or virus in culture; type: cell-based; details: human respiratory syncytial virus
RSVB PEP121 [2] = experiment: microbe, parasite or virus in culture; type: cell-based; details: human respiratory syncytial virus, RSVB PEP121, clinical, 3 parameter curve fit
RSVA Memphis 37c [3] = details: human respiratory syncytial virus
RSVA Memphis 37c [4] = experiment: microbe, parasite or virus in culture; type: cell-based; details: human respiratory syncytial virus, clinical
RSVB HAN1135 [5] = experiment: microbe, parasite or virus in culture; type: cell-based; details: human respiratory syncytial virus, RSVB HAN1135, clinical
RSVA VAN1160 [6] = experiment: microbe, parasite or virus in culture; type: cell-based; details: human respiratory syncytial virus, RSVA VAN1160, clinical
RSVA VAN1160 [7] = details: human respiratory syncytial virus
[8] = tested on: low-passage RSV A clinical isolates (x5 A); experiment: microbe, parasite or virus in culture; type: cell-based; details: human respiratory syncytial virus
RSVB HAN1135 [9] = details: human respiratory syncytial virus
RSVB PEP121 [10] = details: human respiratory syncytial virus
[11] = tested on: low-passage RSV B clinical isolates (x5 B); experiment: microbe, parasite or virus in culture; details: human respiratory syncytial virus
[12] = tested on: low-passage RSV A clinical isolates (x5 A); experiment: microbe, parasite or virus in culture; details: human respiratory syncytial virus
[13] = read-out: CPE assay IC50, median
[14] = read-out: CPE assay IC90, median
[15] = read-out: CPE assay IC90, range
[16] = HEp-2, read-out: RSV titre in supernatant IC50 (0.3 Log PFUe reduction) (converted)
[17] = HEp-2, read-out: RSV titre in supernatant IC90 (1 Log PFUe reduction) (converted)

With `Cc1cnc(N2CC3(CCOCC3)C2)c(C(=O)Nc2ccc(C(=O)N3CCc4cc(C(=O)Nc5c(C)cccc5F)sc4-c4ccccc43)cc2)c1` [PC786, N-(2-fluoro-6-methylphenyl)-6-(4-(5-methyl-2-(7-oxa-2-azaspiro[3.5]nonan-2-yl)nicotinamido)benzoyl)-5,6-dihydro-4H-benzo[b]thieno[2,3-d]azepine-2-carboxamide] the IC50 [1, 13] was 17.5 nM, the IC90 [1, 14] was 360 nM and the IC90 [1, 15] was 27.4 to 821 nM. It also gave an IC50 (RSVB PEP121 [2]; read-out: CPE IC50) of 17.5 nM, an IC90 (RSVB PEP121 [2]; read-out: CPE IC90) of 196 nM and an IC50 (RSVA Memphis 37c [3]; [16]) of 0.53 nM. The IC90 (RSVA Memphis 37c [3]; [17]) was 1.16 nM, the IC50 (RSVA Memphis 37c [4]; read-out: CPE IC50) was 0.22 nM and the IC90 (RSVA Memphis 37c [4]; read-out: CPE IC90) was 3.77 nM. It also gave an IC50 (RSVB HAN1135 [5]; read-out: CPE IC50) of 25.8 nM, an IC90 (RSVB HAN1135 [5]; read-out: CPE IC90) of 27.4 nM and an IC50 (RSVA VAN1160 [6]; read-out: CPE IC50) of 0.71 nM. For the same molecule, the IC90 (RSVA VAN1160 [6]; read-out: CPE IC90) was 1.93 nM, the IC50 (RSVA VAN1160 [7]; [16]) was 0.64 nM and the IC90 (RSVA VAN1160 [7]; [17]) was 0.91 nM. The IC50 [8, 13] was 0.42 nM, the IC50 ([8]; read-out: CPE assay IC50, range) was 0.09 to 0.71 nM and the IC90 [8, 14] was 1.77 nM. For the same molecule, the IC90 [8, 15] was 0.57 to 3.77 nM, the IC50 (RSVB HAN1135 [9]; [16]) was 8.1 nM and the IC90 (RSVB HAN1135 [9]; [17]) was 34 nM. It also gave an IC50 (RSVB PEP121 [10]; [16]) of 17.7 nM, an IC90 (RSVB PEP121 [10]; [17]) of 27.4 nM and an IC50 ([11]; read-out: PCR IC50, median) of 12.1 nM. The IC50 ([11]; read-out: PCR IC50, range) was 8.1 to 17.7 nM, the IC90 ([11]; read-out: PCR IC90, median) was 21.7 nM and the IC90 ([11]; read-out: PCR IC90, range) was 12.3 to 34 nM. The IC50 ([12]; read-out: PCR IC50, median) was 0.54 nM, the IC50 ([12]; read-out: PCR IC50, range) was 0.09 to 0.64 nM and the IC90 ([12]; read-out: PCR IC90, median) was 0.95 nM. The IC90 ([12]; read-out: PCR IC90, range) was 0.5 to 1.16 nM.
